# Assay results: the supplement of paper PMC8728848
# Some of the results follow.
# Tests used:
# Assay in all cases: glycan array binding signal (z-score within array); higher = stronger binding
# Conditions in all cases: glycan notation: IUPAC condensed, linker removed
# [1] = target: Fuc(a1-2)Gal
# Procedure, shortened: (§1)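 Columns mapping to the same glycan were averaged after glycan names were converted to IUPAC-condensed notation. The data come from 3228 arrays in the Consortium for Functional Glycomics database, limited to those with an available protein sequence. Binding is reported as a within-array Z-score averaged across arrays of one protein sequence and across linkers.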
# [2] = target: Fuc(a1-2)Gal(b1-3)GalNAc
# Procedure, shortened: as §1
# [3] = target: Fuc(a1-2)Gal(b1-3)GalNAc(a1-3)[Fuc(a1-2)]Gal(b1-4)Glc
# Procedure, shortened: as §1
# [4] = target: Fuc(a1-2)Gal(b1-3)GalNAc(a1-3)[Fuc(a1-2)]Gal(b1-4)GlcNAc
# Procedure, shortened: as §1
# [5] = target: Fuc(a1-2)Gal(b1-3)GalNAc(b1-3)Gal
# Procedure, shortened: as §1
# [6] = target: Fuc(a1-2)Gal(b1-3)GalNAc(b1-3)Gal(a1-4)Gal(b1-4)Glc
# Procedure, shortened: as §1
# [7] = target: Fuc(a1-2)Gal(b1-3)GalNAc(b1-4)[Neu5Ac(a2-3)]Gal(b1-4)Glc
# Procedure, shortened: as §1
# [8] = target: Fuc(a1-2)Gal(b1-3)GlcNAc
# Procedure, shortened: as §1
# [9] = target: Fuc(a1-2)Gal(b1-3)GlcNAc(b1-2)Man(a1-3)[Fuc(a1-2)Gal(b1-3)GlcNAc(b1-2)Man(a1-6)]Man(b1-4)GlcNAc(b1-4)GlcNAc
# Procedure, shortened: as §1
# [10] = target: Fuc(a1-2)Gal(b1-3)GlcNAc(b1-2)Man(a1-3)[Fuc(a1-2)Gal(b1-3)GlcNAc(b1-2)Man(a1-6)]Man(b1-4)GlcNAc(b1-4)[Fuc(a1-6)]GlcNAc
# Procedure, shortened: as §1
# [11] = target: Fuc(a1-2)Gal(b1-3)GlcNAc(b1-3)Gal(b1-4)Glc
# Procedure, shortened: as §1
# [12] = target: Fuc(a1-2)Gal(b1-3)GlcNAc(b1-3)GalNAc
# Procedure, shortened: as §1
# [13] = target: Fuc(a1-2)Gal(b1-3)GlcNAc(b1-3)[Fuc(a1-2)Gal(b1-3)GlcNAc(b1-6)]GalNAc
# Procedure, shortened: as §1
# [14] = target: Fuc(a1-2)Gal(b1-3)GlcNAc(b1-3)[Gal(b1-4)GlcNAc(b1-6)]Gal(b1-4)Glc
# Procedure, shortened: as §1
# [15] = target: Fuc(a1-2)Gal(b1-3)GlcNAc(b1-3)[Neu5Ac(a2-6)Gal(b1-4)GlcNAc(b1-6)]Gal(b1-4)Glc
# Procedure, shortened: as §1
# [16] = target: Fuc(a1-2)Gal(b1-3)GlcNAc6S
# Procedure, shortened: as §1
# [17] = target: Fuc(a1-2)Gal(b1-3)[Fuc(a1-4)]GlcNAc
# Procedure, shortened: as §1
# [18] = target: Fuc(a1-2)Gal(b1-3)[Fuc(a1-4)]GlcNAc(b1-2)Man(a1-3)[Fuc(a1-2)Gal(b1-3)[Fuc(a1-4)]GlcNAc(b1-2)Man(a1-3)]Man(b1-4)GlcNAc(b1-4)GlcNAc
# Procedure, shortened: as §1
# [19] = target: Fuc(a1-2)Gal(b1-3)[Fuc(a1-4)]GlcNAc(b1-2)Man(a1-3)[Fuc(a1-2)Gal(b1-3)[Fuc(a1-4)]GlcNAc(b1-2)Man(a1-6)]Man(b1-4)GlcNAc(b1-4)[Fuc(a1-6)]GlcNAc(b1-4)[Fuc(a1-6)]GlcNAc
# Procedure, shortened: as §1
# [20] = target: Fuc(a1-2)Gal(b1-3)[Fuc(a1-4)]GlcNAc(b1-3)[Fuc(a1-3)[Gal(b1-4)]GlcNAc(b1-6)]Gal(b1-4)Glc
# Procedure, shortened: as §1
# [21] = target: Fuc(a1-2)Gal(b1-3)[Fuc(a1-4)]GlcNAc(b1-3)[Gal(b1-4)GlcNAc(b1-6)]Gal(b1-4)Glc
# Procedure, shortened: as §1
# [22] = target: Fuc(a1-2)Gal(b1-4)Fuc(a1-3)]GlcNAc(b1-2)Man(a1-3)[Fuc(a1-2)Gal(b1-4)[Fuc(a1-3)]GlcNAc(b1-2)Man(a1-6)]Man(b1-4)GlcNAc(b1-4)GlcNAc
# Procedure, shortened: as §1
# [23] = target: Fuc(a1-2)Gal(b1-4)Glc
# Procedure, shortened: as §1
# [24] = target: Fuc(a1-2)Gal(b1-4)Glc6S
# Procedure, shortened: as §1
# [25] = target: Fuc(a1-2)Gal(b1-4)GlcNAc
# Procedure, shortened: as §1
# [26] = target: Fuc(a1-2)Gal(b1-4)GlcNAc(b1-2)Man
# Procedure, shortened: as §1
# [27] = target: Fuc(a1-2)Gal(b1-4)GlcNAc(b1-2)Man(a1-3)[Fuc(a1-2)Gal(b1-4)GlcNAc(b1-2)Man(a1-6)]Man(b1-4)GlcNAc(b1-4)GlcNAc
# Procedure, shortened: as §1
# [28] = target: Fuc(a1-2)Gal(b1-4)GlcNAc(b1-2)Man(a1-3)[Fuc(a1-2)Gal(b1-4)GlcNAc(b1-2)Man(a1-6)]Man(b1-4)GlcNAc(b1-4)[Fuc(a1-6)]GlcNAc
# Procedure, shortened: as §1
# [29] = target: Fuc(a1-2)Gal(b1-4)GlcNAc(b1-2)[Fuc(a1-2)Gal(b1-4)GlcNAc(b1-4)]Man(a1-3)[Fuc(a1-2)Gal(b1-4)GlcNAc(b1-2)Man(a1-6)]Man(b1-4)GlcNAc(b1-4)GlcNAc
# Procedure, shortened: as §1
# [30] = target: Fuc(a1-2)Gal(b1-4)GlcNAc(b1-3)Gal(b1-4)GlcNAc
# Procedure, shortened: as §1
binder,measurement,setting,value
"BC2LB (Burholderia cenocepacia), B4EH85_BURCJ (protein) MGSSHHHHHHSSGENLYFQGHMSQPFTHDDLYALLQLAGNDATAVQANGDQAVLDRMRQFMTAQLVEKLPQYDVFVDIATIPYSFDVGSWQNKVKTDAAGEVVACTVTWAGAPGVLPGAAAKFGVGAVVNYFSKATPH",glycan array binding signal (z-score),[1],-0.021
same,glycan array binding signal (z-score),[2],-0.215
same,glycan array binding signal (z-score),[3],-0.176
same,glycan array binding signal (z-score),[4],-0.327
same,glycan array binding signal (z-score),[5],-0.141
same,glycan array binding signal (z-score),[6],-0.185
same,glycan array binding signal (z-score),[7],-0.296
same,glycan array binding signal (z-score),[8],-0.241
same,glycan array binding signal (z-score),[9],0.171
same,glycan array binding signal (z-score),[10],-0.135
same,glycan array binding signal (z-score),[11],-0.248
same,glycan array binding signal (z-score),[12],-0.33
same,glycan array binding signal (z-score),[13],-0.166
same,glycan array binding signal (z-score),[14],-0.289
same,glycan array binding signal (z-score),[15],-0.361
same,glycan array binding signal (z-score),[16],0.992
same,glycan array binding signal (z-score),[17],-0.105
same,glycan array binding signal (z-score),[18],0.293
same,glycan array binding signal (z-score),[19],-0.167
same,glycan array binding signal (z-score),[20],-0.191
same,glycan array binding signal (z-score),[21],-0.251
same,glycan array binding signal (z-score),[22],-0.182
same,glycan array binding signal (z-score),[23],0.158
same,glycan array binding signal (z-score),[24],-0.091
same,glycan array binding signal (z-score),[25],-0.164
same,glycan array binding signal (z-score),[26],0.079
same,glycan array binding signal (z-score),[27],-0.054
same,glycan array binding signal (z-score),[28],0.06
same,glycan array binding signal (z-score),[29],-0.151
same,glycan array binding signal (z-score),[30],-0.309
